# Measurements from paper PMC12040169 (PLOS Biology, 2025).
# The list shows a part of the results.
# Tested on: T1, C. trachomatis L2/434/Bu expressing GFP (CTL2-GFP)
# T1 construct: L2/434/Bu GFP intracellular growth in HeLa cells
# Set-up: species or system HeLa; C. trachomatis total inclusion area by high-content imaging, normalised to DMSO
# Details: total inclusion area; 28.5 h, 10 µM; inhibitor
# How it was run: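 Imaging read-out: GFP inclusions and Hoechst nuclei captured by high-content imaging after fixation. Inclusion area/number = chlamydial growth; nuclei count = host cell viability. MIC calculated per earlier method.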
row,SMILES,% of control remaining
1,COc1cccc(-c2cnc(N)c(NCc3ccco3)n2)c1 [CBK063684],105.045
2,Cn1cc(-c2ncc(OCCc3c[nH]c4ccccc34)nc2N)cn1 [CBK145166],91.021
3,CC(CCCC(C)(C)O)Nc1cncc(-c2cccc(C(=O)O)c2)n1 (stereo not shown) [CBK065489],61.3362
4,CSc1nnc(CC2CCN(C(=O)c3ccccc3C(C)=O)CC2)n1C [CBK306720],73.7337
5,Cc1cccc(-c2ccc3c(c2)C(=O)N2CC[C@H](NC(=O)NC(C)C)C[C@H]2C(=O)N3)c1C [CBK289567],118.493
6,CN(/N=C\c1ccc([N+](=O)[O-])cc1)c1nc(-c2ccccc2)cc(-c2ccccc2)n1 [CBK261517],90.1897
7,O=C(c1ccco1)N1CCC(n2c(=O)oc3ccccc32)CC1 [CBK284350],45.4889
8,CC(=O)Nc1cccc(-n2cc(-c3cccc(C(F)(F)F)c3)nn2)c1 [CBK112938],86.5484
9,CC(C)(CN1CCCCC1)NC(=O)CCOc1cccc(F)c1 [CBK282060],98.7755
10,CN(CCN1CCOCC1)c1nc2c(c(=O)[nH]1)Cc1ccccc1OC2 [CBK306783],96.1176
11,COc1ccc(-c2noc(CSc3nc4sc(C)c(C)c4c(=O)n3-c3ccccc3)n2)cc1 [CBK268264],116.444
12,COc1ccc(S(=O)(=O)N(CC(=O)O)C2CCCCC2)cc1Cl [CBK267997],84.2662
13,CC(=O)c1ccc(OC(C)C)c(CSc2nc(O)cc(O)n2)c1 [CBK263446],94.7429
14,CCCCNC(=O)c1c(N)n(-c2ccc(C(=O)O)cc2)c2nc3ccccc3nc12 [CBK300500],82.9575
15,N#C/C(=C\c1ccc(OCC(=O)O)cc1)C(N)=S [CBK268917],117.372
16,Oc1ccc(/N=C/c2ccc(/C=N/c3ccc(O)cc3)cc2)cc1 [CBK261203],94.573
17,Cc1nc(-c2n[nH]cc2-c2ccccc2F)sc1CCN [CBK281578],92.5198
18,CCCOc1ccc(C(C)=O)cc1CC(C(N)=O)C(N)=O [CBK263309],61.3497
19,COc1ccc(OCc2nn(-c3nc4ccccc4s3)c(N)c2-c2ccccc2)cc1 [CBK266539],93.1235
20,Cc1csc([C@H]2Cc3ccsc3[C@@H](C3CCOC3)N2)n1 (stereo partly shown) [CBK285089],118.891
21,Cn1nnnc1NC(=O)c1ccccc1F [CBK058776],94.5456
22,COc1ccc(N2C(=O)CC(n3c(CCCCO)nc4ccccc43)C2=O)cc1 (stereo not shown) [CBK268895],84.6075
23,Cc1ccc(S(N)(=O)=O)cc1-c1nnc2c3ccccc3c(C)nn12 [CBK266680],75.962
24,CCn1ncnc1CN(C)Cc1ccc2c(c1)CN(C)C2 [CBK306530],88.0167
25,CCc1ccc(C(O)CNC2CCN(CCOC)CC2)cc1 (stereo not shown) [CBK304259],48.3683
26,CC(Sc1ccc(Cl)cc1)C(=O)Nc1ccc(CSc2ccccc2)cc1 (stereo not shown) [CBK264670],101.578
27,COc1ccc(CC(=O)NNC(=O)Nc2ccc(Cl)c(Cl)c2)cc1 [CBK262652],97.7919

row,SMILES,% of control remaining
1,Cc1ccc(NS(=O)(=O)c2cc(C(=O)N3CCN(C)CC3)ccc2C)cc1 [CBK268577],112.399
2,CC1(NC(=O)CC(c2ccncc2)c2c[nH]c3ccccc23)CCC1 (stereo not shown) [CBK281610],99.6016
3,O=C(NCCSCc1ccco1)Nc1ccc(Cl)cc1 [CBK267869],115.971
4,C=CCOc1ccc2ccccc2c1CNc1nn[nH]n1 [CBK267619],105.564
5,O=C(c1cc(F)cc(F)c1)N1CCC(O)(c2cccnc2F)CC1 [CBK284361],91.1865
6,CC(=O)N1CCC2(C/C=C/C[C@H]3CN(CCO)CC[C@H]3NC(=O)CNC2=O)CC1 [CBK292139],117.629
7,Cc1ccc(Cc2c(C)nc(N3CCN(Cc4ccccc4)CC3)[nH]c2=O)cc1 [CBK270170],100.524
8,CC(C)n1c(=O)n(CC(=O)NC2CCCCC2)c2cccnc21 [CBK283696],86.488
9,O=S(=O)(Nc1nnn[nH]1)c1cccc2nonc12 [CBK062380],119.073
10,CCCn1c(C)cc(-c2csc(NC(=O)CCn3c(-c4cccs4)n[nH]c3=S)n2)c1C [CBK295326],109.762
11,COc1ccc(C2(NCc3ccc(N4CCCC4=O)cc3)CC2)cc1 [CBK282834],78.5076
12,CCOC(=O)N1CCN(Cc2nc3c(c(=O)n(C)c(=O)n3C)n2Cc2ccccc2C)CC1 [CBK269325],100.282
13,COc1ccccc1N(CC(O)CN1CCCC1)S(=O)(=O)c1ccccc1 (stereo not shown) [CBK264829],79.174
14,O=C(O)Cc1ccc(NC(=O)c2cccc(NC(=O)c3ccco3)c2)cc1 [CBK268606],83.2783
15,COc1cc(F)cc(OC2CCNCC2)c1NC(=O)C1CCC1 [CBK045912T],88.4118
16,Cn1nccc1NC(=O)Nc1ccc(CN2CCOC2=O)cc1 [CBK306279],53.9254
17,COc1ccc(C2C(C(=O)Nc3ccc(C)cc3)=C(C)Nc3ncnn32)cc1OC (stereo not shown) [CBK294416],92.2508
18,Cc1cc(C)nc(Nc2ccc(C3CCCN(C(=O)C(C)(C)c4cccc(F)c4)C3)nc2)n1 (stereo not shown) [CBK286007],96.2363
19,CC(O)c1nc2ccccc2n1C (stereo not shown) [CBK115560],110.422
20,COc1ccccc1C(CNC(=O)Nc1cc(C)on1)N1CCCC1 (stereo not shown) [CBK304586],83.933
21,CC(C)NC(=O)C1CC2CCC1CC21NC(=O)c2ccccc2O1 (stereo not shown) [CBK284353],91.504
22,CCN(CC)C(=O)c1sc2ncccc2c1NS(=O)(=O)c1ccc(C)c([N+](=O)[O-])c1 [CBK050618],102.137
23,COc1ccc(NS(=O)(=O)c2ccc(Cl)c(C(=O)Nc3ccccc3C(=O)O)c2)cc1 [CBK263209],19.5847
24,O=C(NCCCNC1CCc2[nH]c3ccccc3c2C1)c1cccc(Br)c1 (stereo not shown) [CBK107130T],49.1513
25,O=C(O)c1cc(C(=O)O)c(-c2ccccc2)c(C(=O)O)c1 [CBK261101],95.0584
26,Cc1noc(C)c1S(=O)(=O)Nc1c(C(=O)N2CCN(C)CC2)[nH]c2ccccc12 [CBK050057],97.3621
27,COc1ccc(C(=O)CSc2nnc(-c3ccc4c(c3)OCO4)n2-c2ccccc2)cc1 [CBK263592],123.035

row,SMILES,% of control remaining
1,NC[C@H]1CC[C@H](C(=O)NCCN2CCc3ccccc32)CC1 [CBK282723],116.717
2,Cc1sc(-c2ccc(C(F)(F)F)cc2)nc1COc1cncc(N2CCNCC2)n1 [CBK172383G],71.9656
3,O=[N+]([O-])c1ccccc1/C=C/CN1CCN(CCO)CC1 [CBK261863],108.455
4,CC1CCN(c2ccc(S(=O)(=O)Nc3cc(C(=O)O)cc(C(=O)O)c3)cc2[N+](=O)[O-])CC1 [CBK263886],88.9623
5,O=C(NCN1CCN(c2ccccc2F)CC1)c1cccnc1 [CBK265530],79.2867
6,CCc1nc2cc(NC(=O)c3csc(C(C)=O)c3)ccc2n1C [CBK282522],82.0309
7,Cc1oc2c(c1C(=O)NCCn1ccnc1C)CCCC2 [CBK281898],80.2873
8,CC(C)S(=O)(=O)N1CCC(C(=O)NC(c2ccccc2)c2ccc3ccccc3n2)CC1 (stereo not shown) [CBK059676],96.6363
9,O=C(O)CCc1ccc(-c2cn3ccnc3c(NCc3ccncc3)n2)cc1 [CBK038022],104.149
10,CN(C)C(=O)c1cccc(-c2cnc(N3CCOCC3)c3nccn23)c1 [CBK091261],129.048
11,Cn1c(=O)c2c(nc(N3CCN(c4cccc(Cl)c4)CC3)n2CC(=O)O)n(C)c1=O [CBK286803],99.6441
12,O=C(O)CCCc1ccc2sc3ccccc3c2c1 [CBK010971],94.1548
13,N#Cc1c(Nc2cccc(C(F)(F)F)c2)sc(C(=O)c2ccc3c(c2)OCO3)c1N [CBK074399],1.675
14,CN1CCN(CCCNC(=O)C2(c3ccccc3)CCCC2)CC1 [CBK149521],109.737
15,Nc1ncc(-c2ccc(F)c(Cl)c2)nc1NCCCO [CBK063555],104.735
16,Cc1cccc(CN2CCC3(CCc4ccccc4C(=O)N3)C2)n1 (stereo not shown) [CBK284619],93.8141
17,Cc1nnc(Sc2ncccc2C(F)(F)F)s1 [CBK115211],109.476
18,CCCc1cc(C(=O)N2CCCC(COc3cccc(F)c3)C2)[nH]n1 (stereo not shown) [CBK306776],75.5277
19,CC(C)[C@H]1NC(=O)[C@@H]2[C@@H](NC(=O)NC3CCCCC3)CCN2C1=O [CBK289264],87.5833
20,CC(NC(=O)N(CCCN)Cc1ccccc1C(F)(F)F)c1ccccc1 (stereo not shown) [CBK034668C],26.5418
21,COc1cccc(CNc2ccc(S(N)(=O)=O)cc2)c1OCc1ccccc1F [CBK267906],91.9515
22,O=C(c1cc2ncc(CCO)cn2n1)N1CCC(c2ccccc2Cl)C1 (stereo not shown) [CBK307266],53.417
23,COc1ncccc1C(NC(=O)C1CCN(C(=O)OCc2ccccc2)CC1)c1ccccc1C (stereo not shown) [CBK076802],110.818
24,Cc1cc(C(F)(F)F)n2nc(C3CCCN3C(=O)C(C)C)cc2n1 (stereo not shown) [CBK284685],94.3014
25,COc1ccnc(N2CCCN(CCCC#N)CC2)n1 [CBK084124],45.1484
